# Some of the results follow.
# System: PfSIP2 AP2 domain 1 (GST-tagged)
# Experiment: gcPBM binding intensity (ln(normalized median fluorescence intensity)); higher = stronger DNA binding
# Procedure, shortened: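 GST-tagged P. falciparum DNA-binding domains, expressed in E. coli (about 25 μg on average), were applied for 1 h to an Agilent 4 × 180k array of primer-extended double-stranded 36-bp intergenic genomic probes plus negative controls. The binding buffer was 1× PBS with 1% milk, 0.2 mg/ml BSA, 0.5% salmon testes DNA and 0.03% Triton X-100. Bound protein was detected with Alexa488 anti-GST antibody and scanned at 488 nm. Binding intensity is the highest Masliner-normalised natural-log median intensity across replicate spots of either probe orientation.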
row,Sequence,gcPBM binding intensity (ln)
1,TATACATATAAATTGTGTACACATATATATATATTT [XGTACX_site7875],7.13
2,AATATATAAATTAATACATGCACATATAGAAAGGGA [TGCATGCA_site472],8.64
3,CTTTTTACTTAATACACACACACACTAGAAAAAAAA [CACACA_site4680],7.5
4,CTTTTCTTTTTTTTTTGTACATAAAATTATTCCTTA [XGTACX_site3924],7.06
5,AATATAGTCACACATACACACATATAGATTTATATA [CACACA_site7223],7.07
6,TTTTGTTGCTCTTTTTTTTTTTTTTTTAACTGTATG [CACACA_negctrl_site1072],6.8
7,AACCAATATGTGTATACACACATAAATATAAATATA [CACACA_site7729],7.24
8,AAAAAAAAAAAAAGGTGTACATAAGTAAATTCATAT [XGTACX_site4206],7.11
9,AATACTATTATTATTGCACACTTATTATCCCTCGGA [CACACA_site4262],7.1
10,TATAAAAATATTTCTACACACATTAATATATATATA [CACACA_site1150],8.62
11,AATATATAGAGAGATATGCACACTGTATGAATGCAC [CACACA_site2677],10.3
12,TATATTAATAATAAGTGTACATATATATATATTTTT [XGTACX_site288],7.3
13,TATTTTTTCTTTCATTGTACTTTTTTTTTGTTTTGT [XGTACX_site4081],6.86
14,AATGAGAAATATAATTGTACATATATTTATTTTCAT [XGTACX_site3669],7.04
15,ATTTGTAAAAAATTCATACACACGTCTTATTTTTAA [CACACA_site1390],6.86
16,AAAAAATTAATATTGACACACATTTTTAAGAATAAT [CACACA_site239],6.73
17,AAACAAAAAATTTAAAGTACAAAAATTATGATTGTT [XGTACX_site465],6.98
18,CAAAAGGATAGGCACACACACACACCCATATATATA [CACACA_site2199],7.55
19,AATATGTCTATATTTTTTATATGGAAATATTATAAA [GTGCAC_negctrl_site700],6.97
20,TTTTTTTTTTTTTTTTTTTTTTTATCTATTATTTAT [XGTACX_negctrl_site496],6.97
21,TATTTATATTTATATACACACATACATATTTATATT [CACACA_site6535],6.74
22,TATTTTGTAATAATTACACACGGAATTATAACAGAA [CACACA_site2355],7.2
23,TCTTAATTTGTTATATGTACATAATATAATTGTATA [XGTACX_site5184],7.34
24,TTATATTAATAAAAAGAAAATCATTTTTTCTTTTAT [CACACA_negctrl_site1595],6.5

# — the supplement of paper PMC11417369
